Measured values published in PubChem BioAssay AID504332 (National Center for Advancing Translational Sciences (NCATS), 2011).
Several values for one entry are separate records, joined by “and”; a condition that tells them apart may be missing. Equal values may be shown once. The whole screen tested about 350,000 compounds, of which about 31,000 (8.9%) were called active. The shares of active, inactive and inconclusive entries below differ from those in the screen. Calls come from the whole dose curve; as a rule, active = well fitted inhibition curve with a large enough effect; inconclusive = small, poorly fitted or top-dose-only effect; inactive = no such curve, though single readings can be large or run the other way. Potencies of inconclusive entries are doubtful fits and often do not repeat. Where a structure was tested more than once in an assay, its records may differ in their call.

Molecular target: Histone-lysine N-methyltransferase EHMT2 (Homo sapiens) (UniProt Q96KQ7)
Chain of UniProt Q96KQ7 (Q96KQ7 whole entry, looked up): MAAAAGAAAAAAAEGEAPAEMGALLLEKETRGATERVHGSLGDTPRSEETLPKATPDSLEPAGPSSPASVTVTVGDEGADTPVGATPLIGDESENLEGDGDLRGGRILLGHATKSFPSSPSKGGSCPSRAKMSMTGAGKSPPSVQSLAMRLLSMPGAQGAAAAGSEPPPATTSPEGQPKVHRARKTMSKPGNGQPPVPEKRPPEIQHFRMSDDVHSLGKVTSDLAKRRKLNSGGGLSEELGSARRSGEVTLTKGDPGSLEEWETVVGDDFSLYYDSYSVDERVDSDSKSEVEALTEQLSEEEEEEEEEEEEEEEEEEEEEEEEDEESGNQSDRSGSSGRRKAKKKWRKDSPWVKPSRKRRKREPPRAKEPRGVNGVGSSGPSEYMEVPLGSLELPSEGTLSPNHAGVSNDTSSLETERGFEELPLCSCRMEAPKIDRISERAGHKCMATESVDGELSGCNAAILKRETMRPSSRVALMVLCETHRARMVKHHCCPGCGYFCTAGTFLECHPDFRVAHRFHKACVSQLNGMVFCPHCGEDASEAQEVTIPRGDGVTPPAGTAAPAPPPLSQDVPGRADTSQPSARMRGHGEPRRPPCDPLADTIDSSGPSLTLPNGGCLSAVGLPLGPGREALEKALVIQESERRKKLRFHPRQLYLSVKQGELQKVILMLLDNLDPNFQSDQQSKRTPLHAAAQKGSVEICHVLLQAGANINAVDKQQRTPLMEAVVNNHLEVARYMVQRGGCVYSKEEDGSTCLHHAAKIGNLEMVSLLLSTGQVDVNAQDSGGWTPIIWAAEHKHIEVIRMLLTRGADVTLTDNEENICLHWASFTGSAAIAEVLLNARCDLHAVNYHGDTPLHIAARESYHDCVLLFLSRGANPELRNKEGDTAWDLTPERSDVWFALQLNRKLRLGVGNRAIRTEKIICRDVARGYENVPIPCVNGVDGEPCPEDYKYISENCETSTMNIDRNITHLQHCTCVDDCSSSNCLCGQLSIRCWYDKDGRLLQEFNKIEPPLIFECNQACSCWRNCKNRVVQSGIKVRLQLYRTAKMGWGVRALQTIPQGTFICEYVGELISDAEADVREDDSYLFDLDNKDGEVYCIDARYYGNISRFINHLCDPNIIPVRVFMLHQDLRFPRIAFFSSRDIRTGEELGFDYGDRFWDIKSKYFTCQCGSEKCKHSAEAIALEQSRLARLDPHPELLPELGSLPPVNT
Test: qHTS Assay for Inhibitors of Histone Lysine Methyltransferase G9a; note: nearly all actives have a fitted effect of over 75% in size
Conditions: G9a H3K9 monomethylation, AlphaScreen, 2 h; activity, negative = inhibition: at 59 µM (top of the series) unless noted
Method in brief: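 AlphaScreen read-out: biotin-H3K9 peptide (500 nM) methylation by 20 nM enzyme with 20 uM SAM, 2 h at room temperature after 15 min compound preincubation; anti-monomethyl H3K9 antibody plus donor/acceptor beads, 10 min dark.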
% is set by controls: 0 for no effect and ±100 for the full control effect; potency is the fitted concentration of half-maximal effect; tags give direction and shape of the fitted curve.

| SMILES | Potency | activity, negative = inhibition |
| --- | --- | --- |
| CC(=O)OCCCN1C(=O)c2cccc3cc(Br)cc(c23)C1=O | inconclusive: 3.16 µM [inhibitor, single point] | – |
| COc1ccc(NC(=O)c2ccc3c(c2)n(C)c(=O)n3C)cc1 | – | inactive: 10.4% [at 102 µM] |
| Cc1ccccc1NC(=O)CSc1n[nH]c(-c2ccccn2)n1 | – | inactive: 11.5% [at 102 µM] |
| CC(Oc1ccc2c(-c3ccccc3)cc(=O)oc2c1)C(=O)N[C@H](Cc1c[nH]c2ccccc12)C(=O)O (some centres not stated) | – | inactive: -3.04% [at 12.7 µM] |
| O=C(CSc1nnc2c(n1)[nH]c1ccccc12)OCc1ccccc1 | – | inactive: -10.4% |
| CSC1=NCCN1C(=O)c1ccc(S(=O)(=O)N2CCCC2)cc1 | – | inconclusive: -52% [inhibitor] [at 102 µM] |
| Cc1ccc(-c2nc3cnccn3c2Nc2ccc3c(c2)OCCO3)o1 | active: 10 µM | – |
| CN(C)CCCNc1cc(O)c2ncccc2c1 | inconclusive: 2 µM [inhibitor, partial curve, poor fit] | – |
| CCOC(=O)c1cc(-c2ccccc2)sc1NC(=O)CN1C(=O)NC(CC)(c2ccccc2)C1=O (configuration not stated) | inconclusive: 5.01 µM [inhibitor, full curve, poor fit] | – |
| O=C(CCN1C(=O)/C(=C/c2cccs2)SC1=S)Nc1cccc(C(=O)O)c1 | active: 50.1 µM | – |
| C[C@H](CN1c2ccccc2Sc2cccnc21)N(C)C | inconclusive: 1.58 µM [inhibitor, partial curve, poor fit] | – |
| CCSC1=NSC2=NC(=O)/C(=C\c3coc4ccccc4c3=O)C(=N)N12 | inconclusive: 39.8 µM [inhibitor, single point] | – |
| COc1ccc(N(C(=O)/C=C/c2ccc(OC)c(OC)c2)C2=CC3CCC(C2)N3C)cc1 (configuration not stated) | inconclusive: 89.1 µM [inhibitor, single point] | – |
| COc1ccc(N(CC(=O)NC2CCCCC2)S(=O)(=O)c2c(C)[nH]c(=O)[nH]c2=O)cc1 | inconclusive: 89.1 µM [inhibitor, partial curve, poor fit] | – |
| Cc1ccc(-n2nc3c(c2NC(=O)c2c(-c4ccccc4Cl)noc2C)CSC3)cc1 | active: 44.7 µM | – |
| C=C(C)C(=O)Nc1cccc(C2=NOC3(C2)C[C@H](C(N)=O)N(C(=O)CC)C3)c1 (some centres not stated) | inconclusive: 3.16 µM [inhibitor, partial curve, poor fit] | – |
| O=C(CCc1c[nH]c2ccccc12)Nc1ccc(S(=O)(=O)Nc2ncccn2)cc1 | inconclusive: 44.7 µM [inhibitor, partial curve, poor fit] | – |
| COC(=O)C1=C(N)Oc2cc(C)[nH]c(=O)c2C1c1ccccc1OC (configuration not stated) | inconclusive: 50.1 µM [inhibitor, partial curve] | – |
| CCCCNc1nc2sc3c(c2c(=O)n1-c1cccc(Cl)c1)CCN(C)C3 | inconclusive: 79.4 µM [inhibitor, single point] | – |
| CC1CCCN(c2ccc(C(=O)NCc3cccs3)cn2)C1 (configuration not stated) | inconclusive: 31.6 µM [inhibitor, single point] | – |
| COc1cccc(CNC(=O)CCNS(=O)(=O)c2ccc3c(c2)CC(C)N3C(C)=O)c1 (configuration not stated) | – | inactive: 12.2% |
| Cc1ccc(N2C(=O)C3N=NN(CC(=O)N4N=C(c5ccccc5)CC4c4ccccc4)C3C2=O)cc1 (configuration not stated) | – | inactive: 64.1% [at 102 µM] |
| C/C(=C\c1ccc(C(=O)O)cc1)c1ccc2c(c1)C(C)(C)CCC2(C)C | inactive and active: 15.8 µM | – |

| SMILES | Potency | activity, negative = inhibition |
| --- | --- | --- |
| CC(C)[C@H](NC(=O)c1ccccc1)C(=O)Nc1ccc2c(c1)OCO2 | inconclusive: 7.94 µM [inhibitor, full curve, poor fit] | – |
| CN(C)CCN(C(=O)c1ccc2ccccc2c1)c1nc2cc3c(cc2s1)OCCO3 | active: 39.8 µM | – |
| O=C(C1CCN(S(=O)(=O)N2CCOCC2)CC1)N1CCN(c2ccc(F)cc2)CC1 | inconclusive: 79.4 µM [inhibitor, partial curve, poor fit] | – |
| CCc1cccc(CC)c1NC(=O)C1CCN(C(=O)c2ccco2)CC1 | – | inactive: -6.3% [at 102 µM] |
| Cc1ccc(OCCNCC(O)COc2ccccc2)cc1 (configuration not stated) | inconclusive: 89.1 µM [inhibitor, single point] | – |
| CCOc1ccc(Cl)cc1/C=N/NC(=O)CNC(=O)c1ccccc1 | – | inactive: 14.4% |
| COCCN1C(=O)C(=O)/C(=C(/O)c2ccc(S(=O)(=O)N3CCOCC3)cc2)C1c1cccc([N+](=O)[O-])c1 (configuration not stated) | inconclusive: 89.1 µM [inhibitor, single point] | – |
| O=c1c2ccccc2nc2n1C(CSCc1ccc(Cl)cc1Cl)CS2 (configuration not stated) | inconclusive: 89.1 µM [inhibitor, partial curve, poor fit] | – |
| CCc1ccc(CNCc2ccc(OCC(O)CN(C)Cc3ccccc3)cc2)nc1 (configuration not stated) | inconclusive: 39.8 µM [inhibitor, partial curve, poor fit] | – |
| CCCCCCOc1ccc(N2C(=O)CC(N3CCN(CCN=CC4C(=O)CC(C)(C)CC4=O)CC3)C2=O)cc1 (configuration not stated) | inconclusive: 56.2 µM [inhibitor, partial curve, poor fit] | – |
| N=c1n(N)c2ccccc2n1CC(=O)c1ccc(Br)cc1 | inconclusive: 70.8 µM [inhibitor, single point] | – |
| CCC(C)(C)c1nnc(NC(=O)C2CC(=O)N(CCc3ccc(F)cc3)C2)s1 (configuration not stated) | active: 44.7 µM | – |
| COc1ccc(NC(=O)c2ccc(NC(=O)CCS(=O)(=O)c3cccs3)cc2)cc1OC | – | inactive: 1.32% |
| O=C(NCCCNCc1ccccc1)c1ccccn1 | inconclusive: 8.91 µM [inhibitor, full curve, poor fit] | – |
| CCOC(=O)c1cc(-c2ccccc2)n(CCC(=O)Nc2cc(OCC)ccc2OCC)c1C | inconclusive: 22.4 µM [inhibitor, single point] | – |
| CC1CN(C(=O)CSc2nnc(-c3ccccc3)o2)CC(C)O1 (configuration not stated) | – | inactive: 5.75% [at 102 µM] |
| COc1ccc(CCNc2ncnc3cc(OC)c(OC)cc23)cc1OC | – | inactive: -4.51% |
| COCc1ccc(CN2CCC(C(=O)Nc3cccc(-c4cccc(Cl)c4)c3)CC2)o1 | inconclusive: 39.8 µM [inhibitor, partial curve, poor fit] | – |
| COc1cc(/C=N/Nc2nc(N3CCCC3)nc(N3CCCC3)n2)ccc1O | inconclusive: 3.16 µM [inhibitor, single point] | – |
| O=[N+]([O-])c1ccc(N2CCN(c3ccc(F)cc3)CC2)nc1 | – | inactive: 0.453% [at 102 µM] |
| COc1ccc(CNC(=O)CN(C(=O)CCC(=O)Nc2nccs2)c2ccc3c(c2)OCO3)cc1 | – | inactive: 18.1% [at 102 µM] |
| O=C(O)c1c[nH]c2ccc(S(=O)(=O)N3CCN(c4ccc(F)cc4)CC3)cc2c1=O | inconclusive: 44.7 µM [inhibitor, partial curve, poor fit] | – |
| COc1ccc(NC(=O)C(=O)N/N=C\c2ccc(CNC(=O)C(=O)Nc3ccc(C)c(C)c3)o2)c(OC)c1 | inconclusive: 70.8 µM [inhibitor, single point] | – |

| SMILES | Potency | activity, negative = inhibition |
| --- | --- | --- |
| CCn1c2c(c3cc(C(=O)O)ccc31)CCCC2=O | – | inactive: -9.3% [at 12.7 µM] |
| Clc1ccccc1OCCCOc1cccc2cccnc12 | – | inactive: 14.6% [at 0.501 µM] |
| Nc1nonc1C(=O)NCCNCc1ccccc1OCc1ccccc1F | inconclusive: 56.2 µM [inhibitor, partial curve, poor fit] | – |
| CCN(C(=S)Nc1ccc(OC(F)F)cc1)C1CCCCC1 | inconclusive: 56.2 µM [inhibitor, partial curve, poor fit] | – |
| Cc1[nH]c2ccc(-c3nnc(SCC(=O)c4ccc(F)cc4)o3)cc2c1C | – | inconclusive: -61.2% [inhibitor] |
| C[C@@H](C(=O)NC1CCN(Cc2ccccc2)CC1)N1C(=O)N2CCc3c([nH]c4ccccc34)[C@@]2(C)C1=O | – | inactive: -17.5% [at 102 µM] |
| Cc1cc(Cl)c2oc(C(=O)N(C)C(C)c3ccccn3)c(C)c2c1 (configuration not stated) | – | inactive: 19.3% [at 102 µM] |
| COCCn1nnnc1C(c1cc2cccc(C)c2[nH]c1=O)N1CCN(c2ccccc2F)CC1 (configuration not stated) | active: 3.16 µM | – |
| COC(=O)c1ccccc1NC(=S)NC(NC(=O)COc1ccccc1)C(Cl)(Cl)Cl (configuration not stated) | active: 2.24 µM | – |
| O=S(=O)(O)O | inconclusive: 3.16 µM [inhibitor, full curve, poor fit] | – |
| COc1cccc(/C=N/NC(=O)CCn2c3ccccc3c3ccccc32)c1 | active: 17.8 µM | – |
| CC(C)c1ccc(C2(C)NC(=O)N(CC(=O)N3CCN(C(=O)c4cccs4)CC3)C2=O)cc1 (configuration not stated) | – | inactive: 11.6% [at 2.33 µM] |
| C/C=C/c1ccc(OCC(=O)OCC2=C(C(=O)OCC)C(C)NC(=O)N2)c(OC)c1 (configuration not stated) | inconclusive: 79.4 µM [inhibitor, single point] | – |
| O=C(/C=C/c1ccccc1)CC(O)(c1ccccc1)C(F)(F)C(F)F (configuration not stated) | inconclusive: 89.1 µM [inhibitor, single point] | – |
| O=C1C(Cl)=C(Nc2ccccc2O)C(=O)N1c1ccccc1 | active: 7.94 µM | – |
| O=C(O)c1ccc(Nc2cnc3ccccc3n2)cc1 | inconclusive: 79.4 µM [inhibitor, partial curve, poor fit] | – |
| COc1ccc(Nc2nc(Nc3ccc(OC)cc3)nc(-n3[nH]c(=O)c(C)c3C)n2)cc1 | inconclusive: 25.1 µM [inhibitor, single point] | – |
| O=S(=O)(NNc1ncc(C(F)(F)F)cc1Cl)c1ccccc1 | inconclusive: 7.08 µM [inhibitor, single point] | – |
| COc1ccccc1/C=N\Nc1ccccc1[N+](=O)[O-] | active: 7.94 µM | – |
| Fc1ccc(OCc2nc(-c3ccc(Br)o3)no2)c(F)c1 | inconclusive: 89.1 µM [inhibitor, single point] | – |
| Cn1c(=O)n(Cc2ccccc2Cl)c(=O)c2c1[nH]c(=S)n2C | active: 1.26 µM | – |
